SMILES strings stand for the structures.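 Briefly, cells in 96-well plates were exposed to five compound concentrations for 48 h, and endpoints were estimated by linear interpolation. At the GI50, growth is halved.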 Active and inactive are the calls of the source. Rule as the data show it: active = GI50 up to about 1.1 µM and inactive = higher. A value given as a limit tells only on which side of the number the result lay.

In this assay the test system is NCI-H322M. The assay is described as follows: NCI anticancer screen, dose series, 48 h.
For the molecule `O=C(O)c1ccccc1-c1ccccc1C(=O)Nc1ccc2c(c1)Cc1cc(F)ccc1-2`, the GI50 is inactive: 24.3 µM.
As for `O=NN(CCCl)C(=O)NC1CCC(CC2CCC(NC(=O)N(CCCl)N=O)CC2)CC1` (stereo not drawn), the figure is inactive: 1.88 µM; as for `CN(C)c1ccc(/C=c2\c3cc([N+](=O)[O-])ccc3n3c2cc(-c2ccccc2)[n+]3C)cc1`, inactive: 2.89 µM.
The same measure for `O=C(CSc1nc2ccc([N+](=O)[O-])cc2s1)c1ccc2ccccc2c1`: inactive: > 100 µM; for `[N-]=[N+]=CC(=O)COC(=O)c1ccccc1`: inactive: > 100 µM.
As for `O=C1COc2cc3c(cc2N1)SCCC(=O)N3`, the figure is inactive: > 100 µM.
For `Clc1ccc(Cl)c2[s+]snc12`, the GI50 was inactive: > 100 µM.
For the molecule `COc1ccc(-c2nnc3c4ccccc4sn23)cc1`, the GI50 is inactive: 8.57 µM.
Regarding `O=c1[nH]c(=O)n(C2CC(O)C(CO)O2)cc1C#Cc1cc(C(F)(F)F)cc(C(F)(F)F)c1` (stereo not drawn), the GI50 was inactive: > 67.8 µM.
With `OCC(O)C(O)C(C=NNc1ncnc2ccc(Br)cc12)=NNc1ncnc2ccc(Br)cc12` (stereo not drawn), the GI50 is inactive: 1.34 µM.
As for `CCC(C(=O)c1ccc(OC)c(OC)c1)N(C(=O)C(F)(F)F)C(C)c1ccccc1` (stereo not drawn), the figure is inactive: > 100 µM; as for `CSc1n/c(=N\c2ccccc2)sn1-c1ccccc1`, inactive: 32.3 µM; as for `COc1ccc2c(c1)N1CCc3cc(OC)c(OC)cc3C1C2` (stereo not drawn), inactive: > 100 µM.
For `COc1ccc(/C=C(/C#N)C(N)=O)c(OC)c1`, the GI50 is inactive: > 100 µM.
The same measure for `N#CCCN(CCCN(CCCN(C(=O)Nc1ccccc1)c1ccccc1)C(=O)Nc1ccccc1)C(=O)Nc1ccccc1`: inactive: > 8.75 µM.
As for `O=C1CCC2CCc3cccc4oc1c2c34` (stereo not drawn), the figure is inactive: > 100 µM.
The same measure for `COc1cccc(-c2nccc3c(OCc4ccccc4)c(OC)c(OC)cc23)c1`: inactive: > 100 µM; for `Cc1cn2c(/C=C3/C(=O)Nc4ccccc43)c(-c3ccccc3)nc2s1`: inactive: > 100 µM; for `N=C(N)N/N=C/c1nc2n(c1[N+](=O)[O-])CCS2`: inactive: 29.6 µM.
Turning to `Cc1ccc(S(=O)(=O)N/N=C2\CC3CC4CCC2C4C3)cc1` (stereo not drawn), the GI50 was inactive: > 100 µM.
As for `O=C1C=C(N2CCN(c3ncccn3)CC2)C(=O)c2c(O)ccc(O)c21`, the figure is inactive: > 100 µM; as for `O=CNNC(=O)CSc1nc2ccc(I)cc2c(=O)n1Cc1ccccc1`, inactive: 43.4 µM.
The same measure for `CC1=NN(C(=O)c2ccc([N+](=O)[O-])cc2)C(=O)C1/N=N/c1ccccc1C(=O)O` (stereo not drawn): inactive: > 100 µM; for `OC(CCNC12CC3CC(CC(C3)C1)C2)c1ccccc1` (stereo not drawn): inactive: > 100 µM.
With `NS(=O)(=O)c1nnc(NC(=O)c2cccc([N+](=O)[O-])c2)s1`, the GI50 is inactive: > 100 µM.
As for `Cc1cccc2c1Sc1ccccc1C2NC(=O)CCN(C)C` (stereo not drawn), the figure is inactive: > 100 µM; as for `c1ccc2c3c(ccc2c1)CSCc1ccc2ccccc2c1-3`, inactive: > 100 µM; as for `COc1cc([N+](=O)[O-])ccc1NC1=CC(=O)CCC1`, inactive: > 100 µM.
In the case of `COc1ccc(C(=O)Nc2ccn(CCOC(=O)c3ccc(OC)cc3)c(=O)n2)cc1`, the GI50 was inactive: > 100 µM.
For `O=C1c2ccccc2C(=O)N1CCSCC(CO)SCCN1C(=O)c2ccccc2C1=O` (stereo not drawn), the GI50 is inactive: > 100 µM.
The same measure for `COc1ccc(-c2cc3c(c4cc(OC)ccc24)C(=O)OC3=O)cc1`: inactive: > 100 µM; for `CCCCCCCCCCCCCCCC1(OC)C[N+](C)(C)CCO1` (stereo not drawn): inactive: 9.25 µM; for `CN1CCN(c2ccc3c(c2)NCC(=O)N3)CC1`: inactive: > 100 µM.
Take `CC1(C)Oc2ccccc2OC1O` (stereo not drawn): the GI50 is inactive: > 100 µM.
As for `OCCOCn1nncc1Cn1ncc2c(SCc3ccccc3)ncnc21`, the figure is inactive: > 100 µM; as for `O=C1/C(=C/c2ccccc2)CN(C(=O)Oc2ccc(Cl)cc2)C/C1=C\c1ccccc1`, inactive: 18.5 µM; as for `CN/N=C(\C)C(CN(C)C)C(c1ccccc1)c1c(O)c2ccccc2oc1=O` (stereo not drawn), inactive: > 100 µM.
For `CS(=O)(=O)Nc1ccc(Nc2ccnc3ccc4[nH]ccc4c23)cc1`, the GI50 was inactive: 5.92 µM.
As to `Cn1c(=O)c2ccccc2c2nc3ccccc3nc21`, the GI50 is inactive: > 100 µM.
As to `N#CCCN(CCC#N)c1ccc(C(=N/c2ccc(F)cc2)/N=N/c2ccccc2)cc1`, the GI50 was inactive: > 100 µM.
The same measure for `Nc1nc(Cl)cc(NCC2(CO)CCCCC2)n1`: inactive: > 100 µM; for `CN(CCNC(=O)c1cn(C)c2c1ccc1cc(Cl)c(Cl)cc12)CCNC(=O)c1cn(C)c2c1ccc1cc(Cl)c(Cl)cc12`: inactive: 1.85 µM; for `CC(=O)Nc1ccc(-c2nnc(SCC(=O)Nc3cccc([N+](=O)[O-])c3)o2)cc1`: inactive: 25.4 µM.
As for `[O-][N+]1=[N+]([O-])[C@@H](c2ccccc2)[C@H]1c1ccccc1`, the GI50 was inactive: 15.2 µM.
The same measure for `CC1(C)Oc2ccccc2[N+]([O-])=C1c1ccccc1`: inactive: > 100 µM; for `CC(=O)Oc1cc2c(n(C)c1=O)CCC2`: inactive: > 100 µM; for `Cn1c(=O)c(NC(=O)C(Cl)(Cl)Cl)nc2ccccc21`: inactive: > 100 µM.
Turning to `O=C(CNc1ccccc1C(=O)O)Nn1cnc2ccc(S(=O)(=O)Nc3ccccc3C(=O)O)cc2c1=O`, the GI50 was inactive: > 100 µM.
As for `CC1(C(=O)O)CCC(C(=O)O)C(C)(C)O1` (stereo not drawn), the figure is inactive: > 100 µM; as for `C/C(=N\NC(=N)N)C(CN1CCCCC1)C(c1ccccc1)c1c(O)c2ccccc2oc1=O` (stereo not drawn), inactive: > 100 µM.
The same measure for `COC(C(O)c1ccc2c(c1)OCO2)P(=O)(c1ccccc1)c1ccccc1` (stereo not drawn): inactive: > 100 µM; for `CCc1cccc(C)c1NC(C)=O`: inactive: > 100 µM; for `CC1CCC(=O)C(C(=O)CC2CC(=O)N(C)C(=O)C2)C1` (stereo not drawn): inactive: > 100 µM.
The same measure for `O=C1Oc2ccccc2C(=O)/C1=C\NC(=S)c1ccncc1`: inactive: > 100 µM.
Consider `CCCC(C)NC1=C(NC(C)=O)C(=O)c2ccccc2C1=O` (stereo not drawn), for which the GI50 was inactive: > 100 µM.
As for `CCCCNC1=C2C(=O)NN=C2CO1`, the figure is inactive: > 100 µM; as for `COC(=O)c1ccccc1CC1Cc2c(C)ccc(C)c2C1=O` (stereo not drawn), inactive: 52.1 µM; as for `CC(=O)Oc1ccc2cc(-c3ccccc3OC(C)=O)c(=O)oc2c1`, inactive: > 100 µM.
Regarding `CCCCCc1cc(OC(=O)c2c(O)cc(OC)cc2CCCCC)cc(O)c1C(=O)O`, the GI50 was inactive: 15.8 µM.
For `O=C(c1cccs1)N(C(=S)N1CCN(c2ccccn2)CC1)c1ccccc1`, the GI50 was inactive: 24.3 µM.
The same measure for `COc1ccc(C2=Nc3cc(C)c(C)cc3NC(c3ccccc3)C2)cc1` (stereo not drawn): inactive: > 100 µM; for `COc1c(OC)c(O)c2c(=O)c(OC)c(-c3ccc4c(c3)OCO4)oc2c1O`: inactive: > 100 µM; for `O=c1[nH]cc(/N=C/c2cc(Cl)cc(Cl)c2O)c(=O)[nH]1`: inactive: 19.2 µM.
Consider `CSC1(SC)N2Cc3ccccc3N=C2C1(c1ccccc1)c1ccccc1`, for which the GI50 was inactive: 22.9 µM.
As to `Cn1ccc2c(C(=O)c3ccccc3)cccc2c1=O`, the GI50 was inactive: 68.7 µM.
The same measure for `CC(C)(C)C1=NC(=S)SC2=NC(=O)C3(NN21)c1ccccc1-c1ccccc13`: inactive: > 10 µM; for `C=C1C(=O)O[C@H]2C1C[C@H](O)[C@@]1(C)OC1CC[C@@]1(C)O[C@H]21` (stereo partly drawn): inactive: 41 µM.
As for `COc1ccc(/C=C/c2cc(=O)cc(/C=C/c3ccc(OC)c(O)c3)o2)cc1O`, the figure is inactive: 2.86 µM.
The same measure for `O=C(/C(=C(/Br)I)c1ccccc1)c1ccccc1`: inactive: 15.7 µM; for `CCNC12CCC(C1)C(C)(C)C2=O` (stereo not drawn): inactive: > 100 µM.
Consider `CCN(CC)CCCNc1ncc(C)c2[nH]c3ccncc3c12`, for which the GI50 is inactive: 6 µM.
As to `N#C/C(C(=O)Nc1ccccc1)=C(/N)N1CCCCC1`, the GI50 was inactive: > 100 µM.
As to `CCCCCCCCCC(=O)OCC1OC(n2cc(F)c(=O)[nH]c2=O)C(N)C(OC(=O)CCCCCCCCC)C1O` (stereo not drawn), the GI50 is inactive: 20 µM.
The same measure for `CN1C(=O)C(O)C[C@@H]1c1ccc(F)cc1` (stereo partly drawn): inactive: > 100 µM; for `C=C1CC[C@](C)(O)[C@@]2(C)CC[C@H]3C(=C(C)C)C(=O)C[C@]3(C)C[C@H]12`: inactive: > 50 µM; for `O=C(O)C1CC2(C1)CC(C(=O)O)C2` (stereo not drawn): inactive: > 100 µM.
The same measure for `c1cnn(CN(Cn2cccn2)Cn2cccn2)c1`: inactive: > 100 µM.
As for `COc1ccc(C(=O)/C(Br)=C/C(=O)O)cc1`, the figure is inactive: 40.1 µM; as for `CCNC(=S)N/N=C1\C(=O)Nc2ccc([N+](=O)[O-])cc21`, inactive: 37.1 µM.
`COC(=O)[C@]1(C)CCCC2(C)C1CC[C@H]1C=C(C)[C@H]3CCC12C3` (stereo partly drawn): the GI50 is inactive: > 100 µM.
In the case of `CN1CCS(=O)(=O)NC(Cc2ccccc2)C(=O)N2CCCC2C1=O` (stereo not drawn), the GI50 is inactive: > 100 µM.
Take `CC1=CC(/C=C(\C)CCCc2ccoc2)C2(OC(=O)C(C)=C2O)[C@H]2C1CC[C@@H]2C` (stereo partly drawn): the GI50 was inactive: 24.6 µM.
As for `O=C1CCCCC/C1=C\c1ccc(Cl)cc1`, the figure is inactive: > 100 µM; as for `CCCCCCCCCCCCCCCC(=O)NCC(COP(=O)([O-])OCC[N+](C)(C)C)OCC` (stereo not drawn), inactive: 18.3 µM.
As for `Cc1c2cc[n+]([O-])cc2c(C)c2c1[nH]c1ccccc12`, the figure is inactive: 7.24 µM; as for `N=NCC(=O)OC(COCc1ccccc1)COCc1ccccc1`, inactive: > 100 µM; as for `NS(=O)(=O)c1ccc(-n2c(-c3cccs3)nc3ccc(I)cc3c2=O)cc1`, inactive: 25.1 µM.
The same measure for `COC(=O)C[S+]([O-])c1ccccc1` (stereo not drawn): inactive: 49 µM.

The values are drawn from ChEMBL document CHEMBL1201862, “PubChem BioAssay data set” (2004).
